# Results taken from PubChem BioAssay AID624171 (National Center for Advancing Translational Sciences (NCATS), 2012).
# Screen size: about 410,000 compounds; about 1,200 (0.29%) were called active. Roughly 2% stayed inconclusive and do not appear here. The call rests on the fitted dose curve; in most records, active means well fitted activation curve with a large enough effect; inconclusive means small, poorly fitted or top-dose-only effect; inactive means flat fitted curve, though single readings scatter. This is a selection; strong and weak results do not stand in their true shares.
# Assay: qHTS of Nrf2 Activators; further: nearly all actives have a fitted effect of over 65% in size; on activation: % of control where 0% means no effect
# Details: AREc32 ARE-luciferase reporter (MCF7-derived line), luminescence, 24 h; series mostly up to 46.1 µM; activation: at the top concentration
# Source text: Many diseases have some form of oxidative stress injury and ties to inflammation, causing a host of problems for the patient. The antioxidant response element (ARE) plays an important role in alleviating the harmful effects of oxidative stress. The antioxidant response element (ARE) is a transcriptional regulatory element involved in the activation of genes coding for a number of antioxidant proteins and detoxifying enzymes. These enzymes work in concert to protect tissues from oxidative insults and chemical toxicities in human hepatocytes and immune cells. The protective effects of ARE activation are primarily triggered through Nrf2 (NF-E2-related factor) binding to and activating AREs. It is known that Nrf2 controls the production of over 250 antioxidant and detoxification proteins (Hu et al., 2006), thereby protecting tissues by increasing cellular antioxidant content and suppressing inflammatory signaling pathways. The transcription factor Nrf2 is a central link between oxidative chemicals, such as phenolic antioxidants and electrophilic compounds, and the activation of ARE. Nrf2 levels are constitutively low as a consequence of its interaction with Keap1, which targets its degradation (Zipper and Mulcahy, 2002). Electrophiles react with key cysteine residues in Keap1, releasing Nrf2 and allowing its translocation to the nucleus. Once within the nucleus, Nrf2 complexes with coactivators such as p300, and binds to the AREs to induce gene transcription of cytoprotective enzymes, resulting in the prevention of toxicity. Activation of Nrf2 protects tissues by increasing cellular antioxidant content and suppressing inflammatory signaling pathways. Identifying novel and potent Nrf2 activators by using the AREc32 cell line to detect ARE activation by small molecules will lead to the identification and development of probes to study protective pathways in multiple tissues. These specific probes are essential to study the ARE pathway, and eventually to determine whether this pathway does activate genes that could protect against a host of diseases, including cardiovascular diseases, obesity, diabetes, Alzheimer's, and Parkinson's disease.
# This project's aim is to identify novel and potent Nrf2 activators by using the AREc32 cell line to detect ARE activation by small molecules, which will lead to the identification and development of probes to study the ARE pathway.
# NIH Chemical Genomics Center [NCGC]
# NIH Molecular Libraries Probe Centers Network [MLPCN]
# Assay Submitter (PI): Curtis Klaassen, University of Kansas Medical Center
# 5 uL of 1000 cells/well of AREc32_Fluc cells are seeded into 1536-well plate in OPTI-MEM medium with 5% FBS. […] After the addition of 2.5 uL of Steady-Glo. the plates are kept at RT for 30 min, before they are read on the ViewLux.
# Potency means the concentration at half of the fitted maximal effect.
SMILES,Potency,activation
COc1cc([N+](=O)[O-])c2nc(C)ccc2c1[N+](=O)[O-],active: 17.8 µM,
O=C1C=C2C=C[C@H]3C[C@]2(O1)[C@@H]1CCCCN13,,inactive: 7.75%
COc1cccc(N2C(=O)NC(=O)/C(=C\c3ccc([N+](=O)[O-])s3)C2=O)c1,,inactive: 8.68%
NC(N)=Nc1ccc2[nH]c3c(c2c1)C[C@@]1(O)[C@H]2Cc4ccc(O)c5c4[C@@]1(CCN2CC1CC1)C3O5 (some centres undefined),,inactive: -0.016%
